Experimental data reported in US9612243B1, “Methods and compositions for targeted two-dimensional western blot analysis for early cancer detection and cancer diagnosis up to ten years in advance of clinical symptoms of malignant disease” (Mor-NuCo Enterprises, Inc., priority 2016, dated 2017).

What was measured:
recombinant ENOX2 [1] = molecular target: T1, recombinant ENOX2 (Homo sapiens, UniProt Q16206); test: Binding of stored scFv to recombinant ENOX2 (storage stability); format: physicochemical
T1 sequence (Q16206 1-610): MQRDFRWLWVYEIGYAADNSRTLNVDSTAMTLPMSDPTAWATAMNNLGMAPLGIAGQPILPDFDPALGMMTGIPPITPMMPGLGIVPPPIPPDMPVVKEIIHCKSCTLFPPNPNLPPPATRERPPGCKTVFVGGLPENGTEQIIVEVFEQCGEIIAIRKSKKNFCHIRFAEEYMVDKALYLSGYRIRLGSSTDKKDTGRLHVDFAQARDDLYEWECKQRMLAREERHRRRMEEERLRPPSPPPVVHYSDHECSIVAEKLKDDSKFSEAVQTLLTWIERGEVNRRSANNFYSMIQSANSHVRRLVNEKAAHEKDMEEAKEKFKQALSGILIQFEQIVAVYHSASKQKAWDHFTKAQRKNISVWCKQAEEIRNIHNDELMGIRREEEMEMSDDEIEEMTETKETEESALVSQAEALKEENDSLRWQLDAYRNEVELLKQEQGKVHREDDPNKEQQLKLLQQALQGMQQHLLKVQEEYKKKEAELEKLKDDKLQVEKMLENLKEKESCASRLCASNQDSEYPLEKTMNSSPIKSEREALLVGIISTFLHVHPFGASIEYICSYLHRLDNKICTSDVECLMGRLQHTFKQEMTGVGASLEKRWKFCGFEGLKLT
Description: A major factor, however, in determining the efficacy of the scFv is its propensity to aggregate. After only ten days of storage at either −70° C. or 4° C., the binding of the purified scFv to recombinant ENOX2 protein was reduced by more than 90%. After much study, this loss of efficacy was traced solely to protein aggregation. […] Aggregation of the functionalized scFv antibody as determined from light scattering measurements is achieved by storage in 50% glycerol and stored at −70° C., essential ingredients in the overall protocol to achieve the desired level of sensitivity and specificity. Activity is lost rapidly by storage in the absence of glycerol.

recombinant ENOX2 [2] = molecular target: T1, recombinant ENOX2; test: 1D Western blot reactivity; format: binding; settings: membranes incubated with scFv for 17 hours, alkaline phosphatase linked S-protein 2 hours
Description: 1D Western blot analysis of scFvSC. Reactivity of scFv(SC) toward recombinant ENOX2 was analyzed by 1 dimensional western blot. Recombinant ENOX2 was separated by SDS-PAGE and transferred to nitrocellulose membranes. Nitrocellulose membranes were incubated with scFv(SC) for 17 hours and alkaline phosphatase linked S-protein for 2 hours. […] For comparison, scFv(S) was included in the western blot analysis.

recombinant ENOX2 [3] = molecular target: T1, recombinant ENOX2; test: Western blot mixing experiments under non-reducing conditions (cross-linking of ScFV to ENOX2); format: binding; set-up: between the full length ScFV and the 72 kDa full length ENOX2; settings: FIG. 12

- reactivity toward recombinant ENOX2 (recombinant ENOX2 [2]): reacted toward recombinant ENOX2
B1: scFv(SC): recombinant anti-ENOX2 single chain variable region antibody with Gly/Ser linker containing two cysteines, GST tag, SEQ ID NO:11 (protein, listed as Homo sapiens)
scFv: [about 200 residues omitted]SDLVPRGSPGIPEVKLQESGTEVVKPGASVKLSCKASGYIFTSYDIDWVRQTPEQGLEWIGWIFPGEGSTEYNEKFKGRATLSVDKSSSTAYMELTRLTSEDSAVYFCARGDYYRRYFDLWGQGTTVTVSSGGGGSCGGGSCGGGSENVLTQSPAIMSASPGERVTMTCSASSSIRYIYWYQQKPGSSPRLLIYDTSNVAPGVPFRFSGSGSGTSYSLTINRMEAEDAATYYCQEWSGYPYTFGGGTKLELKA
modifications: GST tag
- reduction of binding of purified scFv to recombinant ENOX2 protein (recombinant ENOX2 [1]; after only ten days of storage at either −70° C. or 4° C.): more than 90%
- activity on storage (recombinant ENOX2 [1]; storage in the absence of glycerol): lost rapidly
- cross-linking of ScFV with recombinant ENOX2 (recombinant ENOX2 [3]): disulfide bond formation between the full length ScFV and the 72 kDa full length ENOX2
